Source: the supplement of paper PMC4967469
By IC50 is meant the dose at which the fit gives 50% viability; fits outside the tested doses are given as limits. AUC sums up the same curve from the lowest dose to the 256-fold higher top dose; the more sensitive the line, the further below 1. For some assays here: Any top dose called inferred was derived from the fitted curves, not read from the paper.

What was measured:
Assay in all cases: Viability of human cancer cell lines after 72 h of drug (GDSC screen)
SN-38 = compound: CCc1c2c(nc3ccc(O)cc13)-c1cc3c(c(=O)n1C2)COC(=O)[C@]3(O)CC [SN-38]; settings: top dose 0.05 µM; top dose inferred
Procedure: (§1)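 Human cancer cell lines in 384-well plates, medium with 10% serum, drug for 72 h over a 256-fold dose range (nine 2-fold or five 4-fold steps up to the top dose). Adherent lines were fixed and stained with the nucleic acid dye Syto60, suspension lines read with resazurin; signal relative to control wells, capped at 0 and 100%. One two-parameter sigmoid per drug and line, fitted in a mixed model over all curves with the slope shared within a line.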

Dabrafenib = compound: CC(C)(C)c1nc(-c2cccc(NS(=O)(=O)c3c(F)cccc3F)c2F)c(-c2ccnc(N)n2)s1 [Dabrafenib]; settings: top dose 10 µM
Procedure: as §1

Vorinostat = compound: O=C(CCCCCCC(=O)Nc1ccccc1)NO [Vorinostat]; settings: top dose 10 µM
Procedure: as §1

Methotrexate = compound: CN(Cc1cnc2nc(N)nc(N)c2n1)c1ccc(C(=O)N[C@@H](CCC(=O)O)C(=O)O)cc1 [Methotrexate]; settings: top dose 0.2 µM
Procedure: as §1

Axitinib = compound: CNC(=O)c1ccccc1Sc1ccc2c(/C=C/c3ccccn3)n[nH]c2c1 [Axitinib]; settings: top dose 2 µM
Procedure: as §1

AN3-CA (endometrium, adherent)
AUC (SN-38): 0.826
IC50 (SN-38): 34.3 nM
AUC (Dabrafenib): 0.917
IC50 (Dabrafenib): > 10000 nM
AUC (Vorinostat): 0.789
IC50 (Vorinostat): 4880 nM
AUC (Methotrexate): 0.976
IC50 (Methotrexate): > 200 nM

NCI-H1734 (lung adenocarcinoma, adherent)
AUC (Vorinostat): 0.706
IC50 (Vorinostat): 2550 nM
AUC (Axitinib): 0.976
IC50 (Axitinib): > 2000 nM
AUC (Methotrexate): 0.985
IC50 (Methotrexate): > 200 nM

MOLT-13 (T-cell lymphoblastic leukaemia, suspension)
AUC (SN-38): 0.322
IC50 (SN-38): 1.07 nM
AUC (Dabrafenib): 0.713
IC50 (Dabrafenib): 2290 nM
AUC (Vorinostat): 0.545
IC50 (Vorinostat): 814 nM
AUC (Axitinib): 0.941
IC50 (Axitinib): > 2000 nM

NB69 (neuroblastoma, adherent)
AUC (Vorinostat): 0.437
IC50 (Vorinostat): 430 nM
AUC (Axitinib): 0.974
IC50 (Axitinib): > 2000 nM
AUC (Methotrexate): 0.983
IC50 (Methotrexate): > 200 nM

KON (head and neck, adherent)
AUC (SN-38): 0.386
IC50 (SN-38): 1.53 nM
AUC (Dabrafenib): 0.907
IC50 (Dabrafenib): > 10000 nM
AUC (Vorinostat): 0.75
IC50 (Vorinostat): 3200 nM
AUC (Axitinib): 0.864
IC50 (Axitinib): 1690 nM

C-33-A (cervix, adherent)
AUC (SN-38): 0.36
IC50 (SN-38): 1.28 nM
AUC (Dabrafenib): 0.92
IC50 (Dabrafenib): > 10000 nM
AUC (Vorinostat): 0.557
IC50 (Vorinostat): 892 nM
AUC (Methotrexate): 0.972
IC50 (Methotrexate): > 200 nM

SK-MEL-30 (melanoma, adherent)
AUC (SN-38): 0.671
IC50 (SN-38): 9.66 nM
AUC (Dabrafenib): 0.933
IC50 (Dabrafenib): > 10000 nM
AUC (Vorinostat): 0.825
IC50 (Vorinostat): 6470 nM
AUC (Methotrexate): 0.964
IC50 (Methotrexate): > 200 nM

SK-N-AS (neuroblastoma, adherent)
AUC (SN-38): 0.722
IC50 (SN-38): 14.9 nM
AUC (Dabrafenib): 0.942
IC50 (Dabrafenib): > 10000 nM
AUC (Vorinostat): 0.625
IC50 (Vorinostat): 1460 nM
AUC (Methotrexate): 0.965
IC50 (Methotrexate): > 200 nM

KMS-12-BM (myeloma, suspension)
AUC (Vorinostat): 0.378
IC50 (Vorinostat): 307 nM
AUC (Axitinib): 0.917
IC50 (Axitinib): > 2000 nM
AUC (Methotrexate): 0.914
IC50 (Methotrexate): > 200 nM

OAW-42 (ovary, adherent)
AUC (SN-38): 0.579
IC50 (SN-38): 5.22 nM
AUC (Dabrafenib): 0.87
IC50 (Dabrafenib): > 10000 nM
AUC (Vorinostat): 0.726
IC50 (Vorinostat): 2930 nM
AUC (Axitinib): 0.928
IC50 (Axitinib): > 2000 nM

CAL-12T (non-small cell lung carcinoma, adherent)
AUC (SN-38): 0.931
IC50 (SN-38): > 50 nM
AUC (Dabrafenib): 0.904
IC50 (Dabrafenib): > 10000 nM
AUC (Vorinostat): 0.782
IC50 (Vorinostat): 4710 nM
AUC (Axitinib): 0.945
IC50 (Axitinib): > 2000 nM

KARPAS-1106P (B-cell lymphoma, suspension)
AUC (SN-38): 0.512
IC50 (SN-38): 3.35 nM
AUC (Dabrafenib): 0.987
IC50 (Dabrafenib): > 10000 nM
AUC (Vorinostat): 0.445
IC50 (Vorinostat): 454 nM
AUC (Axitinib): 0.993
IC50 (Axitinib): > 2000 nM

JiyoyeP-2003 (Burkitt lymphoma, suspension)
AUC (SN-38): 0.701
IC50 (SN-38): 10.6 nM
AUC (Dabrafenib): 0.962
IC50 (Dabrafenib): > 10000 nM
AUC (Vorinostat): 0.703
IC50 (Vorinostat): 2150 nM
AUC (Axitinib): 0.979
IC50 (Axitinib): > 2000 nM

DND-41 (T-cell leukaemia, suspension)
AUC (SN-38): 0.335
IC50 (SN-38): 1.16 nM
AUC (Dabrafenib): 0.834
IC50 (Dabrafenib): 5480 nM
AUC (Vorinostat): 0.684
IC50 (Vorinostat): 1910 nM
AUC (Axitinib): 0.977
IC50 (Axitinib): > 2000 nM

KYSE-140 (oesophagus, adherent)
AUC (Vorinostat): 0.761
IC50 (Vorinostat): 4000 nM
AUC (Axitinib): 0.961
IC50 (Axitinib): > 2000 nM
AUC (Methotrexate): 0.861
IC50 (Methotrexate): > 200 nM

HCC1395 (breast, adherent)
AUC (SN-38): 0.83
IC50 (SN-38): 40.4 nM
AUC (Dabrafenib): 0.957
IC50 (Dabrafenib): > 10000 nM
AUC (Vorinostat): 0.857
IC50 (Vorinostat): > 10000 nM
AUC (Axitinib): 0.887
IC50 (Axitinib): > 2000 nM

SW756 (cervix, adherent)
AUC (SN-38): 0.408
IC50 (SN-38): 1.66 nM
AUC (Dabrafenib): 0.977
IC50 (Dabrafenib): > 10000 nM
AUC (Vorinostat): 0.761
IC50 (Vorinostat): 4180 nM
AUC (Methotrexate): 0.984
IC50 (Methotrexate): > 200 nM

H3118 (head and neck, adherent)
AUC (SN-38): 0.618
IC50 (SN-38): 6.82 nM
AUC (Dabrafenib): 0.97
IC50 (Dabrafenib): > 10000 nM
AUC (Vorinostat): 0.478
IC50 (Vorinostat): 541 nM
AUC (Axitinib): 0.914
IC50 (Axitinib): > 2000 nM

MDA-MB-175-VII (breast, adherent)
AUC (SN-38): 0.777
IC50 (SN-38): 22.3 nM
AUC (Dabrafenib): 0.972
IC50 (Dabrafenib): > 10000 nM
AUC (Vorinostat): 0.814
IC50 (Vorinostat): 6170 nM
AUC (Axitinib): 0.988
IC50 (Axitinib): > 2000 nM

NCI-H510A (small cell lung carcinoma, semi-adherent)
AUC (Vorinostat): 0.581
IC50 (Vorinostat): 1020 nM
AUC (Axitinib): 0.889
IC50 (Axitinib): 1950 nM
AUC (Methotrexate): 0.989
IC50 (Methotrexate): > 200 nM

Saos-2 (osteosarcoma, adherent)
AUC (SN-38): 0.633
IC50 (SN-38): 8.5 nM
AUC (Dabrafenib): 0.978
IC50 (Dabrafenib): > 10000 nM
AUC (Vorinostat): 0.817
IC50 (Vorinostat): 8980 nM
AUC (Methotrexate): 0.93
IC50 (Methotrexate): > 200 nM

Mewo (melanoma, adherent)
AUC (SN-38): 0.802
IC50 (SN-38): 30.4 nM
AUC (Dabrafenib): 0.903
IC50 (Dabrafenib): > 10000 nM
AUC (Vorinostat): 0.783
IC50 (Vorinostat): 5100 nM
AUC (Methotrexate): 0.965
IC50 (Methotrexate): > 200 nM

NCI-H1048 (small cell lung carcinoma, adherent)
AUC (SN-38): 0.232
IC50 (SN-38): 0.579 nM
AUC (Dabrafenib): 0.989
IC50 (Dabrafenib): > 10000 nM
AUC (Vorinostat): 0.739
IC50 (Vorinostat): 2760 nM
AUC (Axitinib): 0.903
IC50 (Axitinib): > 2000 nM

HCC1954 (breast, adherent)
AUC (Dabrafenib): 0.98
IC50 (Dabrafenib): > 10000 nM
AUC (Vorinostat): 0.915
IC50 (Vorinostat): > 10000 nM
AUC (Axitinib): 0.972
IC50 (Axitinib): > 2000 nM

NCI-H838 (lung adenocarcinoma, adherent)
AUC (SN-38): 0.753
IC50 (SN-38): 17.3 nM
AUC (Dabrafenib): 0.977
IC50 (Dabrafenib): > 10000 nM
AUC (Vorinostat): 0.765
IC50 (Vorinostat): 3810 nM
AUC (Axitinib): 0.973
IC50 (Axitinib): > 2000 nM

JSC-1 (B-cell lymphoma, suspension)
AUC (SN-38): 0.468
IC50 (SN-38): 2.57 nM
AUC (Dabrafenib): 0.959
IC50 (Dabrafenib): > 10000 nM
AUC (Vorinostat): 0.521
IC50 (Vorinostat): 714 nM
AUC (Axitinib): 0.953
IC50 (Axitinib): > 2000 nM

OE19 (oesophagus, adherent)
AUC (SN-38): 0.935
IC50 (SN-38): > 50 nM
AUC (Dabrafenib): 0.972
IC50 (Dabrafenib): > 10000 nM
AUC (Vorinostat): 0.804
IC50 (Vorinostat): 5810 nM
AUC (Axitinib): 0.938
IC50 (Axitinib): > 2000 nM

NCI-H2023 (lung adenocarcinoma, adherent)
AUC (SN-38): 0.765
IC50 (SN-38): 22.8 nM
AUC (Dabrafenib): 0.939
IC50 (Dabrafenib): > 10000 nM
AUC (Vorinostat): 0.791
IC50 (Vorinostat): 5770 nM
AUC (Methotrexate): 0.756
IC50 (Methotrexate): 84.4 nM

HCC1569 (breast, adherent)
AUC (SN-38): 0.851
IC50 (SN-38): > 50 nM
AUC (Dabrafenib): 0.948
IC50 (Dabrafenib): > 10000 nM
AUC (Vorinostat): 0.81
IC50 (Vorinostat): 7530 nM
AUC (Axitinib): 0.911
IC50 (Axitinib): > 2000 nM

HCC70 (breast, adherent)
AUC (SN-38): 0.903
IC50 (SN-38): > 50 nM
AUC (Dabrafenib): 0.987
IC50 (Dabrafenib): > 10000 nM
AUC (Vorinostat): 0.742
IC50 (Vorinostat): 3040 nM
AUC (Axitinib): 0.944
IC50 (Axitinib): > 2000 nM

HCC1428 (breast, adherent)
AUC (SN-38): 0.904
IC50 (SN-38): > 50 nM
AUC (Dabrafenib): 0.96
IC50 (Dabrafenib): > 10000 nM
AUC (Vorinostat): 0.478
IC50 (Vorinostat): 541 nM
AUC (Axitinib): 0.975
IC50 (Axitinib): > 2000 nM
